# From the supplement of paper PMC8728848
# The other results are listed elsewhere or left out.
# B1: Mg1lysM (Mycosphaerella graminicola) (protein)
# chain: QRNPITITPQFDCGATNSQQYVARSGDTLTKIAQEIYHDVVGVCDIARANNLADPNRIDAGTPYTIPINCQTYDRNSCL
# Columns and labels:
# Assay in all cases: glycan array binding signal (z-score within array); higher = stronger binding
# Conditions in all cases: glycan notation: IUPAC condensed, linker removed
# [1] = target: Fuc(a1-2)[GalNAc(b1-3)]Gal
# Outline: (§1)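 Arrays were curated from the Consortium for Functional Glycomics database, 3228 in total, and kept only where the protein sequence was available. Binding is expressed as a within-array Z-score. This score was averaged across arrays of the same protein sequence at different concentrations or buffers and across linkers, and negative values can be read as non-binding.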
# [2] = target: Fuc(a1-3)GlcNAc
# Outline: as §1
# [3] = target: Fuc(a1-3)[Gal(b1-4)]Glc6S
# Outline: as §1
# [4] = target: Fuc(a1-3)[Gal(b1-4)]GlcNAc
# Outline: as §1
# [5] = target: Fuc(a1-3)[Gal(b1-4)]GlcNAc(b1-2)Man
# Outline: as §1
# [6] = target: Fuc(a1-3)[Gal(b1-4)]GlcNAc(b1-2)Man(a1-3)[Fuc(a1-3)[Gal(b1-4)]GlcNAc(b1-2)Man(a1-6)]Man(b1-4)GlcNAc(b1-4)GlcNAc
# Outline: as §1
# [7] = target: Fuc(a1-3)[Gal(b1-4)]GlcNAc(b1-2)Man(a1-3)[Fuc(a1-3)[Gal(b1-4)]GlcNAc(b1-2)Man(a1-6)]Man(b1-4)GlcNAc(b1-4)[Fuc(a1-6)]GlcNAc
# Outline: as §1
# [8] = target: Fuc(a1-3)[Gal(b1-4)]GlcNAc(b1-3)Gal(b1-3)[Fuc(a1-4)]GlcNAc
# Outline: as §1
# [9] = target: Fuc(a1-3)[Gal(b1-4)]GlcNAc(b1-3)Gal(b1-4)[Fuc(a1-3)]GlcNAc
# Outline: as §1
# [10] = target: Fuc(a1-3)[Gal(b1-4)]GlcNAc(b1-3)Gal(b1-4)[Fuc(a1-3)]GlcNAc(b1-3)Gal(b1-4)[Fuc(a1-3)]GlcNAc
# Outline: as §1
# [11] = target: Fuc(a1-3)[Gal(b1-4)]GlcNAc(b1-3)GalNAc
# Outline: as §1
# [12] = target: Fuc(a1-3)[Gal(b1-4)]GlcNAc(b1-6)GalNAc
# Outline: as §1
# [13] = target: Fuc(a1-3)[Gal(b1-4)]GlcNAc(b1-6)[Gal(b1-3)GlcNAc(b1-3)]Gal(b1-4)Glc
# Outline: as §1
# [14] = target: Fuc(a1-3)[Gal(b1-4)]GlcNAc6S
# Outline: as §1
# [15] = target: Fuc(a1-3)[Gal3S(b1-4)]Glc
# Outline: as §1
# [16] = target: Fuc(a1-3)[Gal3S(b1-4)]GlcNAc
# Outline: as §1
# [17] = target: Fuc(a1-3)[Gal3S(b1-4)]GlcNAc6S
# Outline: as §1
# [18] = target: Fuc(a1-3)[GalNAc(b1-4)]GlcNAc
# Outline: as §1
# [19] = target: Fuc(a1-3)[GalNAc(b1-4)]GlcNAc6S
# Outline: as §1
# [20] = target: Fuc(a1-4)GlcNAc
# Outline: as §1
# [21] = target: Fuc(b1-3)GlcNAc
# Outline: as §1
# [22] = target: Gal(a1-2)Gal
# Outline: as §1
# [23] = target: Gal(a1-3)Gal
# Outline: as §1
# [24] = target: Gal(a1-3)Gal(b1-3)GlcNAc
# Outline: as §1
# [25] = target: Gal(a1-3)Gal(b1-3)GlcNAc(b1-2)Man
# Outline: as §1
# [26] = target: Gal(a1-3)Gal(b1-3)GlcNAc(b1-2)Man(a1-3)[Gal(a1-3)Gal(b1-3)GlcNAc(b1-2)Man(a1-6)]Man(b1-4)GlcNAc(b1-4)GlcNAc
# Outline: as §1
# [27] = target: Gal(a1-3)Gal(b1-3)GlcNAc(b1-3)GalNAc
# Outline: as §1
# [28] = target: Gal(a1-3)Gal(b1-3)GlcNAc(b1-6)GalNAc
# Outline: as §1
# [29] = target: Gal(a1-3)Gal(b1-3)[Fuc(a1-4)]GlcNAc(b1-2)Man(a1-3)[Gal(a1-3)Gal(b1-3)[Fuc(a1-4)]GlcNAc(b1-2)Man(a1-6)]Man(b1-4)GlcNAc(b1-4)GlcNAc
# Outline: as §1
# [30] = target: Gal(a1-3)Gal(b1-4)Glc
# Outline: as §1
# [31] = target: Gal(a1-3)Gal(b1-4)GlcNAc
# Outline: as §1
# [32] = target: Gal(a1-3)Gal(b1-4)GlcNAc(b1-2)Man
# Outline: as §1
# [33] = target: Gal(a1-3)Gal(b1-4)GlcNAc(b1-2)Man(a1-3)[Gal(a1-3)Gal(b1-4)GlcNAc(b1-2)Man(a1-6)]Man(b1-4)GlcNAc(b1-4)GlcNAc
# Outline: as §1
# [34] = target: Gal(a1-3)Gal(b1-4)GlcNAc(b1-3)GalNAc
# Outline: as §1
# [35] = target: Gal(a1-3)Gal(b1-4)GlcNAc(b1-6)GalNAc
# Outline: as §1
# [36] = target: Gal(a1-3)Gal(b1-4)[Fuc(a1-3)]GlcNAc
# Outline: as §1
# [37] = target: Gal(a1-3)Gal(b1-4)[Fuc(a1-3)]GlcNAc(b1-2)Man(a1-3)[Gal(a1-3)Gal(b1-4)[Fuc(a1-3)]GlcNAc(b1-2)Man(a1-6)]Man(b1-4)GlcNAc(b1-4)GlcNAc
# Outline: as §1
# [38] = target: Gal(a1-3)GalNAc
# Outline: as §1
# [39] = target: Gal(a1-3)[Gal(a1-4)]Gal(b1-4)GlcNAc
# Outline: as §1
# [40] = target: Gal(a1-4)Gal(b1-3)GlcNAc(b1-2)Man(a1-3)[Gal(a1-4)Gal(b1-3)GlcNAc(b1-2)Man(a1-6)]Man(b1-4)GlcNAc(b1-4)GlcNAc
# Outline: as §1
# [41] = target: Gal(a1-4)Gal(b1-4)Glc
# Outline: as §1
# [42] = target: Gal(a1-4)Gal(b1-4)GlcNAc
# Outline: as §1
# [43] = target: Gal(a1-4)Gal(b1-4)GlcNAc(b1-2)Man(a1-3)[Gal(a1-4)Gal(b1-4)GlcNAc(b1-2)Man(a1-6)]Man(b1-4)GlcNAc(b1-4)GlcNAc
# Outline: as §1
# [44] = target: Gal(a1-4)Gal(b1-4)GlcNAc(b1-3)Gal(b1-4)Glc
# Outline: as §1
# [45] = target: Gal(a1-4)GlcNAc
# Outline: as §1
binder,measurement,setting,value
B1,glycan array binding signal (z-score),[1],-0.123
same,glycan array binding signal (z-score),[2],-0.084
same,glycan array binding signal (z-score),[3],-0.094
same,glycan array binding signal (z-score),[4],-0.069
same,glycan array binding signal (z-score),[5],-0.081
same,glycan array binding signal (z-score),[6],-0.095
same,glycan array binding signal (z-score),[7],-0.059
same,glycan array binding signal (z-score),[8],-0.077
same,glycan array binding signal (z-score),[9],-0.059
same,glycan array binding signal (z-score),[10],-0.077
same,glycan array binding signal (z-score),[11],-0.091
same,glycan array binding signal (z-score),[12],-0.077
same,glycan array binding signal (z-score),[13],-0.072
same,glycan array binding signal (z-score),[14],-0.068
same,glycan array binding signal (z-score),[15],-0.074
same,glycan array binding signal (z-score),[16],-0.075
same,glycan array binding signal (z-score),[17],-0.077
same,glycan array binding signal (z-score),[18],-0.495
same,glycan array binding signal (z-score),[19],-0.069
same,glycan array binding signal (z-score),[20],-0.078
same,glycan array binding signal (z-score),[21],-0.085
same,glycan array binding signal (z-score),[22],-0.038
same,glycan array binding signal (z-score),[23],-0.086
same,glycan array binding signal (z-score),[24],-0.053
same,glycan array binding signal (z-score),[25],-0.065
same,glycan array binding signal (z-score),[26],-0.054
same,glycan array binding signal (z-score),[27],-0.078
same,glycan array binding signal (z-score),[28],-0.069
same,glycan array binding signal (z-score),[29],-0.048
same,glycan array binding signal (z-score),[30],-0.068
same,glycan array binding signal (z-score),[31],-0.062
same,glycan array binding signal (z-score),[32],-0.056
same,glycan array binding signal (z-score),[33],-0.089
same,glycan array binding signal (z-score),[34],-0.046
same,glycan array binding signal (z-score),[35],-0.089
same,glycan array binding signal (z-score),[36],-0.097
same,glycan array binding signal (z-score),[37],-0.004
same,glycan array binding signal (z-score),[38],-0.067
same,glycan array binding signal (z-score),[39],-0.056
same,glycan array binding signal (z-score),[40],-0.074
same,glycan array binding signal (z-score),[41],-0.054
same,glycan array binding signal (z-score),[42],-0.058
same,glycan array binding signal (z-score),[43],-0.061
same,glycan array binding signal (z-score),[44],-0.086
same,glycan array binding signal (z-score),[45],-0.065
